{"source": "paper PMC4336329", "about": "(PLoS ONE, 2015)", "note": "About 2,200 (0.71%) of roughly 310,000 compounds showed an effect of 50% or more. The effect is printed as a negative number. Some of the results follow."}
{"target": "human ether-à-go-go-related gene (hERG) potassium channel (human, UniProt Q12809)", "sequence (Q12809 whole entry, looked up)": "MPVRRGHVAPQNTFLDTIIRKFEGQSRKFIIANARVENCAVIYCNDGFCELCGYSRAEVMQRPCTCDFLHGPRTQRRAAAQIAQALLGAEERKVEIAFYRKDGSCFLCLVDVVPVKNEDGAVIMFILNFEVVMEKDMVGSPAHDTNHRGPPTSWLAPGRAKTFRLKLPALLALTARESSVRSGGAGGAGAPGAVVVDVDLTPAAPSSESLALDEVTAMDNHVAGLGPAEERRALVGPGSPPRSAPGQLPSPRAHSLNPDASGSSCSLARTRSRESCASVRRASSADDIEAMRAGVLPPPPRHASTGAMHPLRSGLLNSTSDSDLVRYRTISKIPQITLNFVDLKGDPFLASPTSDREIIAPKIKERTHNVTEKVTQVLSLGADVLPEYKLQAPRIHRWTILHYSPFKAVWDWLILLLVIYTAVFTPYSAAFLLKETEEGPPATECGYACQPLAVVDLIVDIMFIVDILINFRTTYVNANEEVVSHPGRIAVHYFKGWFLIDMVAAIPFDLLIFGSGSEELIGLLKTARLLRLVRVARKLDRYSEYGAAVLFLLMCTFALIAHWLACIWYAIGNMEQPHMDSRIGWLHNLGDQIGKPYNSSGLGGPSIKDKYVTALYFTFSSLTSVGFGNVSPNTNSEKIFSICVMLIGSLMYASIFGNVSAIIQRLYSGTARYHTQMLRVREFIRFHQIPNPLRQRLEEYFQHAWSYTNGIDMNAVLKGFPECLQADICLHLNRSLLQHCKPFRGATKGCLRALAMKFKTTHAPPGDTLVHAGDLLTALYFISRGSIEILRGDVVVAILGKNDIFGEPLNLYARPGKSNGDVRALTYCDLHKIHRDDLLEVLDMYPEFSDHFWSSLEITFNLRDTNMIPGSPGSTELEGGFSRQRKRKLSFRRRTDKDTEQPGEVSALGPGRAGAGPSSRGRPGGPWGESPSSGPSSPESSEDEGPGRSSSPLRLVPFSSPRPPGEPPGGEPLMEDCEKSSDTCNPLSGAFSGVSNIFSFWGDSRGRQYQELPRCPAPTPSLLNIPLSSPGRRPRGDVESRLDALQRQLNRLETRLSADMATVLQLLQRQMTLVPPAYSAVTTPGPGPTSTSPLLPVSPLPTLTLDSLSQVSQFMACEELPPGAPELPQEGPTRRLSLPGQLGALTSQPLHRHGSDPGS", "experiment": "primary screen, population patch clamp on CHO cells stably expressing hERG", "units": {"hERG current change (%, negative = inhibition) at 1uM": "%"}}
{"smiles": "Cc1ccc(-c2nc(CSCC(=O)N3CCN(C(=O)c4ccco4)CC3)c(C)o2)cc1", "hERG current change (%, negative = inhibition) at 1uM": -3.23}
{"smiles": "Cc1ccc(C(=O)N[C@@H](Cc2ccccc2)C(=O)N2CCC3(CC2)NCCc2[nH]cnc23)cc1C", "hERG current change (%, negative = inhibition) at 1uM": 12.1}
{"smiles": "CCc1ccc2c(c1)C1(NN=C(c3ccccc3)S1)C(=O)N2", "note": "(centres unmarked)", "hERG current change (%, negative = inhibition) at 1uM": 8.11}
{"smiles": "CCOC(=O)C(=O)NC(C)CCc1ccccc1", "note": "(centres unmarked)", "hERG current change (%, negative = inhibition) at 1uM": 9.43}
{"smiles": "CCCc1nnc(NC(=O)CCC(=O)N2CCCCC2CC)s1", "note": "(centres unmarked)", "hERG current change (%, negative = inhibition) at 1uM": 5.93}
{"smiles": "CC(C)(C)CC(C)(C)NC(=S)NC1CCN(Cc2ccccc2)CC1", "hERG current change (%, negative = inhibition) at 1uM": 6.14}
{"smiles": "COc1ccc(CCC(=O)NCc2cnn(C)c2)cc1", "hERG current change (%, negative = inhibition) at 1uM": 0.701}
{"smiles": "CCOc1cc(Br)ccc1S(=O)(=O)N1CC(C)OC(C)C1", "note": "(centres unmarked)", "hERG current change (%, negative = inhibition) at 1uM": -2.78}
{"smiles": "O=C(CS(=O)(=O)c1ccccc1)c1ccc2c(c1)OCCO2", "hERG current change (%, negative = inhibition) at 1uM": 8.7}
{"smiles": "CCC(c1nnc(SCC(=O)Nc2ccc(Cl)cc2C(F)(F)F)n1C1CCCCC1)N(C)C", "note": "(centres unmarked)", "hERG current change (%, negative = inhibition) at 1uM": 8.47}
{"smiles": "CCS(=O)(=O)NC(C)C(c1cccs1)N1CCN(C)CC1", "note": "(centres unmarked)", "hERG current change (%, negative = inhibition) at 1uM": 4.82}
{"smiles": "CCOc1ccc(C(=O)Nc2ccc3c(c2)OCCO3)cc1", "hERG current change (%, negative = inhibition) at 1uM": 3.77}
{"smiles": "COc1ccc2c(c1OC)C(=O)OC2Nc1nc(-c2cc3cc(Br)ccc3oc2=O)cs1", "note": "(centres unmarked)", "hERG current change (%, negative = inhibition) at 1uM": 20.5}
{"smiles": "O=C(CSC1=NS(=O)(=O)c2ccccc2N1)Nc1cccc(F)c1", "hERG current change (%, negative = inhibition) at 1uM": 17.7}
{"smiles": "CCC(/C=C1\\Sc2ccc(OC)cc2N1CC)=C\\c1sc2ccc(OC)cc2[n+]1CCCS(=O)(=O)[O-]", "hERG current change (%, negative = inhibition) at 1uM": 10}
{"smiles": "CN(c1ccc(OC(=O)CC2OC(=O)c3ccccc32)cc1)S(=O)(=O)c1ccccc1", "note": "(centres unmarked)", "hERG current change (%, negative = inhibition) at 1uM": 9.23}
{"smiles": "CCN(CC)c1cc(Cl)c2nonc2c1N", "hERG current change (%, negative = inhibition) at 1uM": 6.66}
{"smiles": "Cc1cc(C(=O)COC(=O)c2cccnc2Cl)c(C)n1CC1CCCO1", "note": "(centres unmarked)", "hERG current change (%, negative = inhibition) at 1uM": -0.594}
{"smiles": "Cl.OC(CN1CCN(Cc2ccccc2)CC1)c1ccc(F)cc1", "note": "(centres unmarked)", "hERG current change (%, negative = inhibition) at 1uM": -49.1}
{"smiles": "CC(C#N)Sc1ccc(S(=O)(=O)N(C)C2CCCCC2)cn1", "note": "(centres unmarked)", "hERG current change (%, negative = inhibition) at 1uM": 4.38}
{"smiles": "COP(=O)(OC)c1nc(-c2ccccc2)oc1NCc1ccccc1", "hERG current change (%, negative = inhibition) at 1uM": 12.5}
{"smiles": "O=C(CSc1nnc(-c2c[nH]c3ccccc23)o1)c1ccc(-c2ccccc2)cc1", "hERG current change (%, negative = inhibition) at 1uM": 12.6}
{"smiles": "CCOc1ccc(NC(=S)N2c3ccccc3CC2C)cc1", "note": "(centres unmarked)", "hERG current change (%, negative = inhibition) at 1uM": 5.75}
{"smiles": "Cc1ccc2nc(C)c3c(c2c1)N(c1ccccc1)CC3", "hERG current change (%, negative = inhibition) at 1uM": -70}
{"smiles": "O=C(/C=C/c1ccccc1Cl)Nc1ccc(Cl)cn1", "hERG current change (%, negative = inhibition) at 1uM": 6.7}
{"smiles": "CC1CN(CC(=O)NN=C(c2ccccc2)c2ccccc2)CC(C)O1", "note": "(centres unmarked)", "hERG current change (%, negative = inhibition) at 1uM": 9.32}
{"smiles": "CN1CCN(C2=Nc3cc(Cl)ccc3Nc3ccccc32)CC1", "hERG current change (%, negative = inhibition) at 1uM": 11.9}
{"smiles": "COCC(N)(c1ccccc1)c1nc2ccccc2n1C", "note": "(centres unmarked)", "hERG current change (%, negative = inhibition) at 1uM": 2.88}
{"smiles": "O=C(c1cccs1)N1CCCC(N2CCN(c3ccc(F)cc3)CC2)C1", "note": "(centres unmarked)", "hERG current change (%, negative = inhibition) at 1uM": -52.1}
{"smiles": "CC1CN(Cc2ccccc2Cl)CC(C)O1", "note": "(centres unmarked)", "hERG current change (%, negative = inhibition) at 1uM": 11.4}
{"smiles": "COc1cccc(CN(Cc2cccnc2)S(=O)(=O)c2ccc(-n3cnnn3)c(C)c2)c1", "hERG current change (%, negative = inhibition) at 1uM": -1.83}
{"smiles": "CC(=O)c1ccc(OCC(O)COc2ccc(C(C)=O)cc2)cc1", "hERG current change (%, negative = inhibition) at 1uM": 2.57}
{"smiles": "O=C(Cn1cnc2c(nnn2Cc2ccc(F)cc2)c1=O)Nc1cccc(F)c1", "hERG current change (%, negative = inhibition) at 1uM": 4.23}
{"smiles": "CCCCS(=O)(=O)NC1=NCN(Cc2ccco2)CN1", "hERG current change (%, negative = inhibition) at 1uM": 17.7}
{"smiles": "O=C(NCC1CCCO1)c1cc2c(=O)[nH]c3ccccc3c2s1", "note": "(centres unmarked)", "hERG current change (%, negative = inhibition) at 1uM": 1.21}
{"smiles": "O=C(NCc1ccc(N2CCCC2=O)cc1)c1cn(CCc2ccccc2)nn1", "hERG current change (%, negative = inhibition) at 1uM": 6.98}
{"smiles": "NNC(=O)CCN1CCCCC1", "hERG current change (%, negative = inhibition) at 1uM": 17.2}
{"smiles": "Cc1ccc(C(=O)NCC(=O)Nc2cc(C)ccn2)cc1", "hERG current change (%, negative = inhibition) at 1uM": 11.5}
{"smiles": "CCN(c1ccccc1)S(=O)(=O)c1cccc(C(=O)NCc2ccncc2)c1", "hERG current change (%, negative = inhibition) at 1uM": 2.78}
{"smiles": "CC(=O)c1ccc(NC(=O)CSc2nc(=O)cc(N)n2-c2ccccc2)cc1", "hERG current change (%, negative = inhibition) at 1uM": -8.88}
{"smiles": "CCc1ccc(CNC(=O)C2CC(=O)N(CCc3ccc(C)cc3)C2)cc1", "note": "(centres unmarked)", "hERG current change (%, negative = inhibition) at 1uM": 0.313}
{"smiles": "O=C1CC(N2CCOCC2)C(=O)N1c1cc(Cl)cc(Cl)c1", "note": "(centres unmarked)", "hERG current change (%, negative = inhibition) at 1uM": 0.284}
{"smiles": "COc1ccc(NC(=O)CN2CCN(c3ccc(F)cc3)CC2)cc1Cl", "hERG current change (%, negative = inhibition) at 1uM": 13.2}
{"smiles": "COc1ccccc1C(=O)NCCC(=O)Nc1nc2ccccc2[nH]1", "hERG current change (%, negative = inhibition) at 1uM": 7.2}
